Results taken from the GPR68 mutational scans of Howard et al. (2025).
The least precise scores are not listed. Two further conditions of the source, in which the scores hardly spread, are not listed. Read del as a deletion of the residues named and ins as an insertion between two positions. For some assays here: How much ogerin was present is not stated here.

B1: GPR68, Q15743 (parent)
chain: MGNITADNSSMSCTIDHTIHQTLAPVVYVTVLVVGFPANCLSLYFGYLQIKARNELGVYLCNLTVADLFYICSLPFWLQYVLQHDNWSHGDLSCQVCGILLYENIYISVGFLCCISVDRYLAVAHPFRFHQFRTLKAAVGVSVVIWAKELLTSIYFLMHEEVIEDENQHRVCFEHYPIQAWQRAINYYRFLVGFLFPICLLLASYQGILRAVRRSHGTQKSRKDQIQRLVLSTVVIFLACFLPYHVLLLVRSVWEASCDFAKGVFNAYHFSLLLTSFNCVADPVLYCFVSETTHRDLARLRGACLAFLTCSRTGRAREAYPLGAPEASGKSGAQGEEPELLTKLHPAFQTPNSPGSGGFPTGRLA

Key:
[1] = variants of: B1; experiment: cAMP reporter score (Enrich2 score, wild type = 0); higher = more signal; HEK293T, FACS bins
[2] = variants of: B1; experiment: surface expression score (Enrich2 score, wild type = 0); higher = more signal; HEK293T, FACS bins

A147M
cAMP reporter score ([1]; pH 5.5): -0.525
cAMP reporter score ([1]; pH 6): -0.573
cAMP reporter score ([1]; pH 6, modulator: ogerin): 0.037
cAMP reporter score ([1]; pH 6.5, modulator: ogerin): 0.492

G140del
cAMP reporter score ([1]; pH 5.5): -2.09
cAMP reporter score ([1]; pH 6): -1.42
cAMP reporter score ([1]; pH 6, modulator: ogerin): -1.73
cAMP reporter score ([1]; pH 6.5, modulator: ogerin): -1.38
surface expression score [2]: -2.54

V144L
cAMP reporter score ([1]; pH 5.5): 0.509
cAMP reporter score ([1]; pH 6): 1.58
cAMP reporter score ([1]; pH 6, modulator: ogerin): 0.5
cAMP reporter score ([1]; pH 6.5, modulator: ogerin): 1.31
surface expression score [2]: 0.298

V144I
cAMP reporter score ([1]; pH 5.5): 0.846
cAMP reporter score ([1]; pH 6): 0.382
cAMP reporter score ([1]; pH 6, modulator: ogerin): 0.574
cAMP reporter score ([1]; pH 6.5, modulator: ogerin): 0.334
surface expression score [2]: 0.8

V144H
cAMP reporter score ([1]; pH 5.5): -1.34
cAMP reporter score ([1]; pH 6): -1.07
cAMP reporter score ([1]; pH 6, modulator: ogerin): -1.96
cAMP reporter score ([1]; pH 6.5, modulator: ogerin): -1.44
surface expression score [2]: -1.76

V144G
cAMP reporter score ([1]; pH 5.5): 0.914
cAMP reporter score ([1]; pH 6): 0.007
cAMP reporter score ([1]; pH 6, modulator: ogerin): 0.546
cAMP reporter score ([1]; pH 6.5, modulator: ogerin): 0.513
surface expression score [2]: 0.323

V144Y
cAMP reporter score ([1]; pH 5.5): -0.338
cAMP reporter score ([1]; pH 6): -1.01
cAMP reporter score ([1]; pH 6, modulator: ogerin): -0.5
cAMP reporter score ([1]; pH 6.5, modulator: ogerin): -0.846
surface expression score [2]: -2.18

V144E
cAMP reporter score ([1]; pH 5.5): -1.39
cAMP reporter score ([1]; pH 6): -1.36
cAMP reporter score ([1]; pH 6, modulator: ogerin): -1.57
cAMP reporter score ([1]; pH 6.5, modulator: ogerin): -0.983
surface expression score [2]: -2.09

V144A
cAMP reporter score ([1]; pH 5.5): -0.011
cAMP reporter score ([1]; pH 6): 0.081
cAMP reporter score ([1]; pH 6, modulator: ogerin): 0.096
cAMP reporter score ([1]; pH 6.5, modulator: ogerin): 0.395
surface expression score [2]: -0.231

V144F
cAMP reporter score ([1]; pH 5.5): 0.765
cAMP reporter score ([1]; pH 6): 1.53
cAMP reporter score ([1]; pH 6, modulator: ogerin): 0.517
cAMP reporter score ([1]; pH 6.5, modulator: ogerin): 2.05
surface expression score [2]: 0.863

V144Q
cAMP reporter score ([1]; pH 5.5): -1.3
cAMP reporter score ([1]; pH 6): -1.11
cAMP reporter score ([1]; pH 6, modulator: ogerin): -2.29
cAMP reporter score ([1]; pH 6.5, modulator: ogerin): -1.33
surface expression score [2]: -3.19

V144S
cAMP reporter score ([1]; pH 5.5): -0.312
cAMP reporter score ([1]; pH 6): 0.097
cAMP reporter score ([1]; pH 6, modulator: ogerin): -0.081
cAMP reporter score ([1]; pH 6.5, modulator: ogerin): 0.004
surface expression score [2]: -1.09

V144C
cAMP reporter score ([1]; pH 5.5): -0.751
cAMP reporter score ([1]; pH 6): -0.7
cAMP reporter score ([1]; pH 6, modulator: ogerin): -0.719
cAMP reporter score ([1]; pH 6.5, modulator: ogerin): -0.597
surface expression score [2]: -1.01

V144T
cAMP reporter score ([1]; pH 5.5): -0.403
cAMP reporter score ([1]; pH 6): -0.084
cAMP reporter score ([1]; pH 6.5, modulator: ogerin): -3.21
surface expression score [2]: -0.967

V144K
cAMP reporter score ([1]; pH 5.5): -1.07
cAMP reporter score ([1]; pH 6): -1.09
cAMP reporter score ([1]; pH 6, modulator: ogerin): -0.764
cAMP reporter score ([1]; pH 6.5, modulator: ogerin): -1.42

V144W
cAMP reporter score ([1]; pH 5.5): -0.505
cAMP reporter score ([1]; pH 6): -0.428
cAMP reporter score ([1]; pH 6, modulator: ogerin): 0.091
cAMP reporter score ([1]; pH 6.5, modulator: ogerin): -0.22

V144D
cAMP reporter score ([1]; pH 5.5): -2.38
cAMP reporter score ([1]; pH 6): -1.2
cAMP reporter score ([1]; pH 6, modulator: ogerin): -1.21
cAMP reporter score ([1]; pH 6.5, modulator: ogerin): -0.658
surface expression score [2]: -2.05

V144M
cAMP reporter score ([1]; pH 5.5): -0.349
cAMP reporter score ([1]; pH 6): 0.29
cAMP reporter score ([1]; pH 6, modulator: ogerin): -0.522
cAMP reporter score ([1]; pH 6.5, modulator: ogerin): -0.086
surface expression score [2]: -0.259

S153G
cAMP reporter score ([1]; pH 5.5): 0.221
cAMP reporter score ([1]; pH 6, modulator: ogerin): -0.104
cAMP reporter score ([1]; pH 6.5, modulator: ogerin): 0.506
surface expression score [2]: 0.661

S153F
cAMP reporter score ([1]; pH 5.5): 1.6
cAMP reporter score ([1]; pH 6): 1.32
cAMP reporter score ([1]; pH 6, modulator: ogerin): -0.954
cAMP reporter score ([1]; pH 6.5, modulator: ogerin): -0.965
surface expression score [2]: -0.07

S153H
cAMP reporter score ([1]; pH 5.5): -0.165
cAMP reporter score ([1]; pH 6, modulator: ogerin): -1.08
surface expression score [2]: -2.45

S153D
cAMP reporter score ([1]; pH 5.5): -0.312
cAMP reporter score ([1]; pH 6): 3.18
cAMP reporter score ([1]; pH 6, modulator: ogerin): -1.18
cAMP reporter score ([1]; pH 6.5, modulator: ogerin): 1.29

S153A
cAMP reporter score ([1]; pH 5.5): -0.696
cAMP reporter score ([1]; pH 6): -1.22
cAMP reporter score ([1]; pH 6, modulator: ogerin): -1.54
cAMP reporter score ([1]; pH 6.5, modulator: ogerin): -0.802
surface expression score [2]: 0.54

S153K
cAMP reporter score ([1]; pH 5.5): 0.424
cAMP reporter score ([1]; pH 6): -0.235
cAMP reporter score ([1]; pH 6, modulator: ogerin): -1.28
cAMP reporter score ([1]; pH 6.5, modulator: ogerin): -0.377
surface expression score [2]: -2.85

S153E
cAMP reporter score ([1]; pH 5.5): 0.226
cAMP reporter score ([1]; pH 6): -1.04
cAMP reporter score ([1]; pH 6, modulator: ogerin): -0.916
cAMP reporter score ([1]; pH 6.5, modulator: ogerin): -0.591
surface expression score [2]: -0.848

S153C
cAMP reporter score ([1]; pH 5.5): 0.962
cAMP reporter score ([1]; pH 6): -0.22
cAMP reporter score ([1]; pH 6, modulator: ogerin): 1.71
cAMP reporter score ([1]; pH 6.5, modulator: ogerin): -0.469
surface expression score [2]: -0.021

S153I
cAMP reporter score ([1]; pH 5.5): 1.41
cAMP reporter score ([1]; pH 6): 0.449
cAMP reporter score ([1]; pH 6, modulator: ogerin): -0.961
cAMP reporter score ([1]; pH 6.5, modulator: ogerin): -0.238
surface expression score [2]: 1.57

T152_S153insGS
cAMP reporter score ([1]; pH 5.5): -1.56
cAMP reporter score ([1]; pH 6): -0.405
cAMP reporter score ([1]; pH 6.5, modulator: ogerin): -1.17
surface expression score [2]: 0.716

V141_S142del
cAMP reporter score ([1]; pH 5.5): -1.46
cAMP reporter score ([1]; pH 6): -0.935
cAMP reporter score ([1]; pH 6, modulator: ogerin): -1.96
cAMP reporter score ([1]; pH 6.5, modulator: ogerin): -1.39
surface expression score [2]: -2.95

L151_T152insGS
cAMP reporter score ([1]; pH 5.5): -2.04
cAMP reporter score ([1]; pH 6): -1.01
cAMP reporter score ([1]; pH 6, modulator: ogerin): -2.07
cAMP reporter score ([1]; pH 6.5, modulator: ogerin): -0.869
surface expression score [2]: -2.7

V143_V144insGS
cAMP reporter score ([1]; pH 5.5): -1.83
cAMP reporter score ([1]; pH 6): -0.876
cAMP reporter score ([1]; pH 6, modulator: ogerin): -1.58
cAMP reporter score ([1]; pH 6.5, modulator: ogerin): -1.36
surface expression score [2]: -2.14
